Test results taken from the RNAGym collection of RNA variant scans (doi:10.1093/nar/gkz1192).
Read counts are not given, so values of variants with three or more changes are uncertain.

B1: CPEB3 Ribozyme (parent)
chain: UAACAGGGGGCCACAGCAGAAGCGUUCACGUCGCAGCCCCUGUCAGAUUCUGGUGAAUCUGCGAAUUCUGCUGUAUAUCUC

Variants of: B1
Experiment: self-cleavage, relative activity (ratio to wild type); higher = more cleavage; in vitro, sequencing
Method in brief: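 After error-prone PCR and barcoding, CPEB3 ribozyme mutant libraries were transcribed with T7 RNA polymerase at 37°C for 5 hours, then given 15 min with DNase I before an EDTA stop, and they cleaved during both steps. Reverse transcription with template switching preceded Illumina sequencing. Relative activity divides a variant's cleaved/total read fraction by the unmutated ribozyme's. At least 5 reads were required per variant, and three batches were averaged.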

Variant	self-cleavage
UAACAGGGAGCCACAGCAGAAGCGUUCACGUCGCAGCCCCCGACAGAUUCUGGUGAAUCUGCGAAUUCCGCUGUAUAUCUC	0.06
UAACAGGGAGCCACAGCAGAAGCGUUCACGUCGCAGCCCCGGUCAGAUUCUGAAGGAUCUGCGAAUUCUGCUGUAUAUCUC	0.37
UAACAGGGCGCCACAGCAGAAGCGUCCACGUCGCAGCCCCUGUCAGAUUCUGGUGAUUCUGCGAAUUCUGCUGUAUAUCUC	0.18
UAACAGGGAGCCACAGCAGAAGCGUUCACGUCGCAGCCCCUGUCAGAUUCUGGAGAAUCUGCACAUUCUGCUGUAUACCUC	0.04
UAACAGGGAGCCACAGCAGAAGCGUUCACGUCGCAGCCCCUGUCAGAUCCUGGUGGAUCUGCGAACUCUGCUGUAUAUCUC	0.09
UAACAGGGCUCCACAGCAGAAGCGUUCACGUCGCAGCCCCUGUCAGAUUCUGGUGAAUCUGCGAAUCCUGCUGUAUAUCUC	0.15
UAACAGGGAGCCACAGCAGAAGCGUUCACGUCGCAGCCCCUGACAGAUUCUGGUGAGUCUGCGAAUUCUGCUGUAUACCUC	0.24
UAACAGGGCGCCACAGCAGUAGCGUUCACGUCGCAGCCCCUGUCAGAUUCUGGUGAAUCUGCGAAUUCAGCUGUAUAUCUC	0.04
UAACAGGGAGCCACAGCAGAAGCGUUCACGUCGCAGCCCCUGUCAGAUUCAGGUGAAUCUGUGAAUUCAGCUGUAUAACUC	0.04
UAACAGGGCACCACAGCAGAAGCGUUCACGUCGCAGCCCCUGUCAGAUUCUGGUGAAUCUGCGAAUUCUGCAGUAUAUCUC	0.09
UAACAGGGAGCCACAGCAGAAGCGUUCACGUCGCAGCCCCUGACAGAUUCUGGCGGAUCCGCGAAUUCAGCAGUAUAUCUC	0.04
UAACAGGGCUCCACAGCAGAAGCGUUCACGUCGCAGCCCCAGUCAGAUUCUGGUGAUUCUGCGAGUUCUGCUGUAGAUCUC	0.09
UAACAGGGCGCCACAGCAGAAGCGAUCACGUCGCAGCCCCUGUCAGAUUCUGGUGAAUCUGCGAACUCUGCUGUAUAUCUC	0.05
UAACAGGGAGCCACAGCAGAAGCGUUCACGUCGCAGCCCCUGUCAGAUUCUGGUGAAUCUGCGAAUUCUGCUGUACAACUC	0.42
UAACAGGGAGCCACAGCAGAAGCGUUCACGUCGCAGCCCCUGUCAGAUUCUGGUGAAUCAGCGAGUUCUGCUGUAUAUCUC	0.07
UAACAGGGAGCCACAGCAGAAGCGUUCACGUCGCAGCCCCUGUCAGACUCUGGUGAAUCUGCGAAAUCUGCAGUAUAUCUC	0.08
UAACAGGGCGCCACAGCAGAAGCGUUCACAUCGCAGCCCCUGUCAGAUUUUGGUGGAUCUGCGGAUUCAGCUGUAUAUCUC	0.03

Variant	self-cleavage
UAACAGGGAGCCACAGCAGAAGCGUUCACGUCGCAGCCCCUGUCAGAUUCUGGUGAACCUGCGAACUCUGCUGUAUAUCUC	0.13
UAACAGGGCGCCACAGCAGUAGCGAUCACGUCGCGGCCCUUGUCAGAAUCUGGUGAAUCUGCGAAUUCUGCUGUAUAUCUC	0.04
UAACAGGGCACCACAGCAGAAGCGCUCACGUCGCAGCCCCUUUCAGAUUCUGGUGUAUCUGCGAAUUCAGCUGUAUAUCUC	0.05
UAACAGGGCGCCACCGCAGAAGCGUUCACGUCGCAGCCCCUGUCAGAUUCCGGUGAAUCUGCGAAUUCUGCUGUAGAUCUC	0.34
UAACAGGGCGCCACAGCAGAAGCGUUCACGUCGCAGCCCCUGUCAGAUUCUGGUGAAUCUGCGGACUCUGCUGAAUAUCUC	0.22
UAACAGGGAGCCACAGCAGAAGCGUUCACGUCGCAGCCCCUGUCAGAUCCUGGUGAAACUGCGAGUUCUGCUGUAUAUCUC	0.12
UAACAGGGAGCCACAGCAGAAGCGUUCACGUCGCAGCCCCUGUCAGAUUCAGGUGAAUCUGCGUAUUCUGCUGUAUAUCUC	0.06
UAACAGGGCGCCACAGCAGUAGCUUUCACGACGCAGCCUCUGUCAGAUUCCGGUGAACCUGCGAAUUCUGCUGUAUAUCUC	0.02
UAACAGGGCGCCACGGCAGAGGCGCUCACGUCGUAGCCCCUGUCAGAUUCUGGUGAAUCUGCGAAUUCUGCUGUAUAUCUC	0.05
UAACAGGGCGCCACAGCAGAAGCGUUCACGUCGAAGCCCACGUCAGAUUCUGGUGAAUCUGCGAAUUCUGCUGUAUAUCUC	0.04
UAACAGGGAGCCACAGCAGAAGCGUUCACGUCGCAGCCCCCGUCAGAUACUCGCGGAUCUGCGAAUUCUGCUGUAUAUCUC	0.06
UAACAGGGCGCCCCAGCAGAAGCGUUCACGUCGCAGCCCCUGUCAGACCCUGGUGAAUCUGCGAAUUCUGCUGUAUAUCUC	0.38
UAACAGGGCGCCGCAGCAGAAGCGUUCACGUCGCAGCCCCUGUCCGAUUCCGGUGAAUCUGCGAAUUCUGCUGUAUACCUC	0.01
UAACAGGGCGCCACAGCAGAAGCGCUCACGUCGCAGCCCCUGUCAGAUUCUGGUGAAUCUGCGAAUUUUGCUGUAUAUCUC	0.49
UAACAGGGCGCCGCAGCAGAAGCGUUCACGUCGCAGCCCCUGUCAGAUUCUGGUGAAUCUGCGAAUUCUGCUGUAUAUCUU	0.58
UAACAGGGAGCCACAGCAGAAGCGUUCACGUCGCAGCCCCUGUCAGAUUCUGGUGAAUCUGCGAAUUCCGCCGUAUAUCUC	0.08
UAACAGGGAGCCACAGCAGAAGCGUUCACGUCGCAGCCCCUGUCAGAUUCUGGUGAAUCUGCGAACUCUGCUGUAUGCCUC	0.15
